According to PMC3598994:
No constants are given. Whether binding was seen depends on the method and setting. Binding seen in cells or lysates may run through a third protein. Some results given as binding are weak or reduced against the parent protein; the word gives no strength. Tags and fused reporters may be left off the sequences shown.

Chains of the proteins cited; added tags and fusions are not shown. Residues count along the entry.
UniProt P11021, residues 19-654: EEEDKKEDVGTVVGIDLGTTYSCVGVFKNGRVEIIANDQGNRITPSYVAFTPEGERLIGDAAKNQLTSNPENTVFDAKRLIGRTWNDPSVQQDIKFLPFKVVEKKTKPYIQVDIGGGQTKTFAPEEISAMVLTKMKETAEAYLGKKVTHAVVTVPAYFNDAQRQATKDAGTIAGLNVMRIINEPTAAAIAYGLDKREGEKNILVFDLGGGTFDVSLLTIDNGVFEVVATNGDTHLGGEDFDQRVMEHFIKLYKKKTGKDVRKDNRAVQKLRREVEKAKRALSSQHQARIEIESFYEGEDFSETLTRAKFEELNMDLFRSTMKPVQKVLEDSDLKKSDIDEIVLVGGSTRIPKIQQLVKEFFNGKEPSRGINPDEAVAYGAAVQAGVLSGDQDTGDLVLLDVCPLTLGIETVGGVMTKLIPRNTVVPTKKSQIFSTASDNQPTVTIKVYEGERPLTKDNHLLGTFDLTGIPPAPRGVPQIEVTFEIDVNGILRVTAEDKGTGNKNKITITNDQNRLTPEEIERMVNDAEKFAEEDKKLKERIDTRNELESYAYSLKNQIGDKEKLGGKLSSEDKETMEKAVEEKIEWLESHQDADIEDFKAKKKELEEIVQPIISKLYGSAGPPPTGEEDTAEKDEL
UniProt P14625, residues 22-803: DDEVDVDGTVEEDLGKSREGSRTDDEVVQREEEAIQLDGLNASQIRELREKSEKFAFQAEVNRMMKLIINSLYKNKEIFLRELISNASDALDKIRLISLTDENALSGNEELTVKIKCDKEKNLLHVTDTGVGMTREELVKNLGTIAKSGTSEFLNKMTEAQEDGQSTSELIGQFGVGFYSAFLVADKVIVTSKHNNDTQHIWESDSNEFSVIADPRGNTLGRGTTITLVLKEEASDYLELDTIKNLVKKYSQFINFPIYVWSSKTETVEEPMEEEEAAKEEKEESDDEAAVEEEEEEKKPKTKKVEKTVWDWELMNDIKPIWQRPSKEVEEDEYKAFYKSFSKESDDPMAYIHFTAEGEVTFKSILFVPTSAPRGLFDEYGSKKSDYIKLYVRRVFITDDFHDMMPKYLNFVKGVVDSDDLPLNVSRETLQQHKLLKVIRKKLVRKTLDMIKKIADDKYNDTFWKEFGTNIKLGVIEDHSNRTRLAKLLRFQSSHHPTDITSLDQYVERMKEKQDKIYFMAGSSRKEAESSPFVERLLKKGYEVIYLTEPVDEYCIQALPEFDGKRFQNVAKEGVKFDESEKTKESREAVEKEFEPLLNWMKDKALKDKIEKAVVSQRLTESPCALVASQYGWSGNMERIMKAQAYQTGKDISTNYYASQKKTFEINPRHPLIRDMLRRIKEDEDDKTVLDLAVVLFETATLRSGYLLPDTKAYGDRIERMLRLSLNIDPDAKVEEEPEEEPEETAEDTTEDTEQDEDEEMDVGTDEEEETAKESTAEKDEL
UniProt P07237, residues 18-508: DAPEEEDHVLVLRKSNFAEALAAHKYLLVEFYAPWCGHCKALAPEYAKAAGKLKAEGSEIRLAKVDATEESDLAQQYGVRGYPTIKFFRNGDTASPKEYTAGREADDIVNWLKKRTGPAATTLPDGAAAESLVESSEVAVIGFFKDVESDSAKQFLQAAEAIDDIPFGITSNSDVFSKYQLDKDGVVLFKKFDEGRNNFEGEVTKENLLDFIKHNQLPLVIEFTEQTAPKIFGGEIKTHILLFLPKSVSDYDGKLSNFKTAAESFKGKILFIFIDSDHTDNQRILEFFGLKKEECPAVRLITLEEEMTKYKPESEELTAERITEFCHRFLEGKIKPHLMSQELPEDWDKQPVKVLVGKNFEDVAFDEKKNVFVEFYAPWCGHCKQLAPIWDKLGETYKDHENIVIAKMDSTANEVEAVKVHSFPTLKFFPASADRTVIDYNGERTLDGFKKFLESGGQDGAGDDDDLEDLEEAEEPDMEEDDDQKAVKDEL

T1: GST-fused Bag5 (Bcl-2 associated athanogene 5), full length (UniProt Q9UL15)
T1 sequence: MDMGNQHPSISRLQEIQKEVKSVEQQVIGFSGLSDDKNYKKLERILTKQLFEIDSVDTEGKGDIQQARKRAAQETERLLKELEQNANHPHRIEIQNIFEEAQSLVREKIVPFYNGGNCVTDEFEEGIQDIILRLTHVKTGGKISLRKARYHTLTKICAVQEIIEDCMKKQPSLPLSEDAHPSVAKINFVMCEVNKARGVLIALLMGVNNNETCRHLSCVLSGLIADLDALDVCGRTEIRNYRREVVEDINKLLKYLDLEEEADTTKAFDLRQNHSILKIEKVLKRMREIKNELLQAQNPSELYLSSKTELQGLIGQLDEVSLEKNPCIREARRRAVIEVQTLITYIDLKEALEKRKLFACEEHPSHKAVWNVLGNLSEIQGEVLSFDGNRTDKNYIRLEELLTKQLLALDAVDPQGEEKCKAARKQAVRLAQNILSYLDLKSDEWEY


How the values were obtained:
[1] = molecular target: T1, GST-fused Bag5 (Bcl-2 associated athanogene 5), full length; test: pull-down; 10 μg of GST-Bag5 incubated with 250 μg of 22Rv.1 cell lysate; western blot with specific antibodies; only the target purified
[2] = molecular target: T1, GST-fused Bag5 (Bcl-2 associated athanogene 5), full length; test: pull-down; 10 μg of GST-fused Bag5 or deletion mutant incubated with 500 μg of 22Rv.1 cell lysate; western blot with anti-GRP78; only the target purified
[3] = molecular target: GRP78/BiP, endogenous in HEK293 cells (human (endogenous in HEK293)) (UniProt P11021); test: co-IP; HEK293 cells transfected with HA-Bag5, cross-linked with DSP; GRP78/BiP immunoprecipitated with an anti-GRP78 antibody on protein A sepharose, IgG as negative control; blot with anti-HA and anti-GRP78

binding [1]	binding [2]	binding [3]	Molecule
binds	binds		GRP78/BiP, endogenous in 22Rv.1 prostate cancer cells (from UniProt P11021 19-654)
no binding			GRP94, endogenous in 22Rv.1 cells (from UniProt P14625 22-803)
no binding			protein disulfide isomerase (PDI), endogenous in 22Rv.1 cells (from UniProt P07237 18-508)
		binds	HA-Bag5 (protein, UniProt Q9UL15 1-447) MDMGNQHPSISRLQEIQKEVKSVEQQVIGFSGLSDDKNYKKLERILTKQLFEIDSVDTEGKGDIQQARKRAAQETERLLKELEQNANHPHRIEIQNIFEEAQSLVREKIVPFYNGGNCVTDEFEEGIQDIILRLTHVKTGGKISLRKARYHTLTKICAVQEIIEDCMKKQPSLPLSEDAHPSVAKINFVMCEVNKARGVLIALLMGVNNNETCRHLSCVLSGLIADLDALDVCGRTEIRNYRREVVEDINKLLKYLDLEEEADTTKAFDLRQNHSILKIEKVLKRMREIKNELLQAQNPSELYLSSKTELQGLIGQLDEVSLEKNPCIREARRRAVIEVQTLITYIDLKEALEKRKLFACEEHPSHKAVWNVLGNLSEIQGEVLSFDGNRTDKNYIRLEELLTKQLLALDAVDPQGEEKCKAARKQAVRLAQNILSYLDLKSDEWEY
